# Reference: the supplement of paper PMC9433436
# ± gives the standard deviation of the averaged measurements. Over roughly 4,100 sequences, “relative kcat/Km (krel) vs genomic leader AAAGAU” has its median near 1.7; the highest 2% begin near 6.5. This is a selection; strong and weak results do not stand in their true shares.
# Molecular target: T1, E. coli RNase P holoenzyme (M1 P RNA + rnpA protein) (UniProt P0A7Y8)
# T1 sequence: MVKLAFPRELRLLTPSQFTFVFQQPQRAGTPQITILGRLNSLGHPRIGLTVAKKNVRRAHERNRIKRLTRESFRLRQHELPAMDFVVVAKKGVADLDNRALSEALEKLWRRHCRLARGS
# Assay: relative kcat/Km (krel) vs genomic leader AAAGAU (relative (reference leader = 1)); higher = faster RNase P cleavage
# Procedure, shortened: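 A precursor tRNA-Met pool randomized at leader positions −6 to −1 was cleaved by E. coli RNase P holoenzyme (P RNA plus C5 protein) under multiple-turnover conditions at 37 °C in 50 mM Tris-HCl pH 8, 100 mM NaCl, 17.5 mM MgCl2. Unreacted precursor was gel-purified at ~5–30% conversion, converted to cDNA libraries and Illumina-sequenced. Relative kcat/Km (krel) was calculated by internal competition kinetics from read ratios, normalised to the genomic leader, averaging two technical replicates.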
# [1] = fraction of substrate reacted: ~9-10% (9.79% repeat 1, 9.1% repeat 2)
# [2] = fraction of substrate reacted: ~13-16% (15.68% repeat 1, 13.17% repeat 2)
# [3] = fraction of substrate reacted: ~26-29% (28.66% repeat 1, 26.4% repeat 2)
Sequence,relative kcat/Km [1],relative kcat/Km [2],relative kcat/Km [3]
ATTTTT,2.48 ± 0.92,2.63 ± 0.22,3.89 ± 1.3
ACTATG,0.987 ± 0.91,1.28 ± 0.66,2.54 ± 0.28
GGGACT,1.47 ± 0.38,0.923 ± 0.07,1.16 ± 0.37
AACTAA,2.93 ± 0.16,4.29 ± 1.7,6.5 ± 3.1
TGACCA,–,0.615 ± 0.6,1.45 ± 0.74
CCCATC,3.16 ± 2,3.86 ± 0.75,4.47 ± 1.3
CACCCG,1.31 ± 0.78,0.433 ± 0.24,1.45 ± 0.21
GTTGCA,1.92 ± 0.31,1.71 ± 0.42,2.28 ± 1.1
TAAGGC,1.46 ± 0.72,–,2.44 ± 2.2
GATCTA,2.53 ± 1.2,1.99 ± 0.21,2.36 ± 0.86
GAGTTA,2.04 ± 0.57,1.64 ± 0.47,2.58 ± 0.83
ACGATT,2.33 ± 0.98,1.48 ± 0.32,2.03 ± 0.045
AGGAAC,1.82 ± 0.51,1.95 ± 0.31,1.84 ± 0.94
TGCAGT,–,2.03 ± 1.7,2.08 ± 2
ACTCCG,0.619 ± 0.38,0.119 ± 0.0044,0.829 ± 0.12
GAGACC,1.6 ± 1,0.952 ± 0.75,1.4 ± 0.17
GGAGTA,–,–,0.53 ± 0.14
ATCCCT,2.7 ± 0.55,3.48 ± 0.4,4.42 ± 1.8
ACGGAC,0.549 ± 0.26,1.07 ± 0.098,1.06 ± 0.54
TCTGGT,–,–,1.45 ± 0.27
TTCCTC,4.47 ± 1.9,5.25 ± 0.81,6.88 ± 2.5
CTCCGA,4.78 ± 2,5.35 ± 1.6,8.07 ± 3.3
TCTGCC,2.33 ± 0.57,1.8 ± 0.49,2.57 ± 0.081
CGTTGC,3.92 ± 1.2,3.77 ± 0.65,5.14 ± 1.6
TCTAGG,1.37 ± 1.2,0.66 ± 0.37,1.66 ± 0.39
TCGCTT,1.69 ± 0.27,2 ± 0.15,2.43 ± 0.46
GCCTAT,2.77 ± 0.47,3.91 ± 0.98,6.22 ± 2.8

Sequence,relative kcat/Km [1],relative kcat/Km [2],relative kcat/Km [3]
CGTTGT,0.465 ± 0.32,–,1.21 ± 0.9
TCAATT,2.1 ± 1.1,1.92 ± 0.12,2.3 ± 0.3
CTATTC,2.19 ± 0.38,2.08 ± 0.56,2.98 ± 0.77
ATAAAC,1.98 ± 1.2,2.37 ± 0.16,2.94 ± 1
ATTAGA,3.28 ± 1.3,3.38 ± 0.27,4.95 ± 2
TATTTA,2.61 ± 1.7,2.93 ± 0.48,4.12 ± 1.6
TCCTTA,3.84 ± 1.5,4.61 ± 0.54,6.32 ± 2.4
GGGCTA,0.822 ± 0.23,1.01 ± 0.35,1.09 ± 0.14
CATAAT,3.02 ± 1.2,3.28 ± 0.4,5.16 ± 2.4
ATTTTC,2.84 ± 1.7,2.54 ± 0.1,2.94 ± 0.38
TGGACC,0.825 ± 0.51,0.618 ± 0.3,0.551 ± 0.0088
TTACAT,3.53 ± 1.5,4.6 ± 0.74,6.4 ± 2.5
AGGGCT,–,–,0.459 ± 0.027
GACACA,2.62 ± 0.8,3.86 ± 1.4,5.32 ± 2.2
CTGGGA,0.548 ± 0.39,–,–
TAACCT,1.14 ± 0.046,1.39 ± 0.36,2.19 ± 1.5
TAGAGA,3.11 ± 1.1,2.86 ± 0.48,4.09 ± 1.6
GTAGCA,1.64 ± 0.038,1.51 ± 0.38,1.94 ± 0.57
CCGATA,1.28 ± 0.26,–,1.35 ± 0.2
CGCCGT,0.516 ± 0.5,–,1.06 ± 0.75
ACCAGT,–,–,0.68 ± 0.25
TATTTG,–,0.733 ± 0.45,1.86 ± 0.14
AACCCT,–,1.61 ± 0.32,2.01 ± 0.28
AGAAAT,2.45 ± 1.1,2.91 ± 0.24,3.16 ± 0.78
AAGTTC,2.18 ± 0.84,2.2 ± 0.33,1.98 ± 0.045
AATCGC,2.71 ± 0.87,2.58 ± 0.92,3.68 ± 1.6
TCATCA,2.45 ± 1.2,2.5 ± 0.069,3.35 ± 1.1

Sequence,relative kcat/Km [1],relative kcat/Km [2],relative kcat/Km [3]
ATTATA,2.41 ± 1.2,1.76 ± 0.6,2.97 ± 1.1
TCTTAT,4.12 ± 1.9,5.44 ± 1.1,–
AAAGAG,–,–,1 ± 0.17
CGAAGG,0.982 ± 0.12,–,0.718 ± 0.53
GCCTAC,3.67 ± 1.2,4.5 ± 0.39,6.1 ± 2.4
CCGAAT,2.07 ± 0.072,2.93 ± 1.4,3.35 ± 1.6
CTTACG,–,0.767 ± 0.29,1.67 ± 0.14
TGCTTG,–,–,0.812 ± 0.49
TCGAAG,2.36 ± 1.7,1.69 ± 1.2,2.82 ± 0.37
AGTATC,2.72 ± 1.1,3.59 ± 0.089,4.17 ± 1.4
TGTTCA,1.48 ± 0.037,2.63 ± 0.08,4.05 ± 1.9
GCACAG,–,–,0.529 ± 0.39
CGCCAT,3 ± 0.35,4.6 ± 1.3,6.07 ± 2.5
ATAAAG,0.655 ± 0.012,0.5 ± 0.38,1.63 ± 0.27
GTCCCA,1.79 ± 0.89,3.04 ± 0.53,4.38 ± 1.3
GTACAT,2.39 ± 1.4,3.45 ± 0.14,5.17 ± 2.2
AAATTC,2.35 ± 1.4,1.98 ± 0.19,2.34 ± 0.6
CAACAC,2.07 ± 0.14,2.58 ± 1.3,3.75 ± 1.6
ATGCGG,–,–,0.622 ± 0.45
GGCGGG,–,–,0.878 ± 0.74
CAAACA,–,1.01 ± 0.4,1.22 ± 0.063
CTGTAG,–,0.916 ± 0.87,2.7 ± 0.46
GTGGAC,0.808 ± 0.45,–,1.4 ± 0.63
AGGATA,1.66 ± 1.1,1.32 ± 0.19,1.52 ± 0.7
CGTTCT,2.36 ± 0.18,3.46 ± 1.4,5.35 ± 2.5
CTTCGA,2.43 ± 0.59,2.97 ± 1.5,4.7 ± 2.1
AGTCCA,2.43 ± 0.88,2.15 ± 0.14,2.64 ± 0.88

Sequence,relative kcat/Km [1],relative kcat/Km [2],relative kcat/Km [3]
CAAAAG,1.16 ± 1.2,–,1.32 ± 0.36
GGCCCT,1.81 ± 0.9,1.3 ± 0.24,1.98 ± 0.1
GGAAAT,1.8 ± 0.19,2.13 ± 0.18,2.93 ± 1.1
ACACTG,–,–,0.832 ± 0.076
GTCGAC,3.76 ± 0.29,5.92 ± 1.9,9.01 ± 3.7
TGAGCG,1.21 ± 0.89,–,0.73 ± 0.43
ACGTGA,1.25 ± 0.65,1.62 ± 0.83,2.21 ± 0.8
TGTGCG,0.34 ± 0.32,–,–
GGTTCT,1.27 ± 0.65,1.42 ± 0.36,1.96 ± 0.38
TTTCAG,2.51 ± 2.3,1.83 ± 0.22,3.23 ± 0.79
AATGTT,0.792 ± 0.16,0.821 ± 0.55,1.29 ± 0.62
GATGCC,–,1.03 ± 0.77,1.29 ± 0.51
GTCAGC,4.18 ± 1.7,5.29 ± 0.92,7.22 ± 2.9
CTTCGC,3.26 ± 0.32,3.44 ± 1.1,4.78 ± 1.5
CCTACG,–,–,1.4 ± 0.03
TCCGCG,–,1.04 ± 0.41,2.73 ± 0.31
GCTCGA,1.37 ± 1.2,1.93 ± 0.28,2.41 ± 0.12
AGTTGG,–,0.447 ± 0.35,0.931 ± 0.14
CTCACG,2.76 ± 2,1.25 ± 0.38,3.03 ± 0.6
TCCTCG,2.35 ± 1.9,2.52 ± 0.14,3.64 ± 0.61
ACGGTG,–,–,0.881 ± 0.76
ACGGAG,–,–,0.397 ± 0.16
ATATCG,1.74 ± 1.2,0.892 ± 0.52,1.87 ± 0.4
CCCTTT,2.73 ± 0.52,3.73 ± 1.1,5.02 ± 2
